The full ranking holds about 33,000 sequences; the median of “E-score (-0.5 to 0.5)” is about -0.01, and the highest 2% start at about 0.26. This is one part of the list.
The sequences below were run against Ste12 (UniProt P13574) (assay: PBM E-score (8-mer binding enrichment) (E-score (-0.5 to 0.5)); higher = stronger / more preferred TF binding; most listed sequences are background and not binding sites). Conditions: protein concentration: 200 nM; construct: GST-DNA-binding domain.
Summary of the method: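 The E-score, a modified Wilcoxon-Mann-Whitney statistic, was computed by the Universal PBM Analysis Suite for every ungapped eight-base word pooled with its reverse complement. Scans behind it were normalised with masliner after bound GST-tagged yeast transcription factors were detected with fluorescent anti-GST. The proteins, at about 100-200 nM, had been applied to universal all-10-mer Agilent arrays made double-stranded by primer extension.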
CGTGGGGA was tested, and the “PBM E-score” value was 0.0623. In the case of TAAACCGA, the “PBM E-score” value is reported as 0.164. For CTAGGGCC, the “PBM E-score” value was -0.187. CCGATCAC was tested, and the “PBM E-score” value was 0.0198. For AGCTTGGC, the “PBM E-score” value was -0.0622. For ACTCATTG, the “PBM E-score” value was -0.19. With AGCACGCG the “PBM E-score” value was -0.101. In the case of ACCGGGAA, the “PBM E-score” value is reported as 0.23. For GGGAGTAA, the “PBM E-score” value was 0.128. In the case of AGGGGTAC, the “PBM E-score” value is reported as -0.00096. CTATTCAA was tested, and the “PBM E-score” value was 0.0745. In the case of GTGACACA, the “PBM E-score” value is reported as 0.154. In the case of CAGACGCG, the “PBM E-score” value is reported as -0.101. With AGTAGATG the “PBM E-score” value was 0.113. For CAGGCCAC, the “PBM E-score” value was 0.00041. In the case of AGCTCCGA, the “PBM E-score” value is reported as 0.0346. CCGCTAAG was tested, and the “PBM E-score” value was 0.109. In the case of CGGGCCCG, the “PBM E-score” value is reported as 0.0973. GTAGTTAA was tested, and the “PBM E-score” value was 0.0674. In the case of ACTTAGGA, the “PBM E-score” value is reported as -0.0167. For GCCTTTGA, the “PBM E-score” value was 0.175. With GACTGTAA the “PBM E-score” value was -0.0138. With GGAGCCCA the “PBM E-score” value was -0.172. With AGAGCTGG the “PBM E-score” value was -0.109. In the case of GGGGCCAA, the “PBM E-score” value is reported as -0.0931. CACCCCTA was tested, and the “PBM E-score” value was 0.0496. With CTGCCTGC the “PBM E-score” value was -0.334. AGTAGACC was tested, and the “PBM E-score” value was -0.1. AGTTTAAC was tested, and the “PBM E-score” value was 0.0433. For GATGCGGC, the “PBM E-score” value was 0.00142. CGAGACTA was tested, and the “PBM E-score” value was 0.00317. For CGCTTGGC, the “PBM E-score” value was -0.231. With CGGACCTC the “PBM E-score” value was -0.102. With GCTATAGA the “PBM E-score” value was -0.153. With CCGGAGTC the “PBM E-score” value was -0.221. For AGCCTGGC, the “PBM E-score” value was -0.17. For CGGAACGC, the “PBM E-score” value was 0.0364. GCAGGGGA was tested, and the “PBM E-score” value was -0.104. In the case of GTAGCCCA, the “PBM E-score” value is reported as -0.21. In the case of CTGTATCC, the “PBM E-score” value is reported as 0.00622. For CAAGCTCG, the “PBM E-score” value was -0.0692. For CCGTTGGC, the “PBM E-score” value was -0.0445. For ATAAACGC, the “PBM E-score” value was -0.0196. With GCTAAGAC the “PBM E-score” value was -0.00979. AATCTCTA was tested, and the “PBM E-score” value was 0.176. In the case of CGTTGCAA, the “PBM E-score” value is reported as 0.128. For ATACCCTA, the “PBM E-score” value was 0.0675. For CAATATGA, the “PBM E-score” value was 0.0995. In the case of CACCGCCG, the “PBM E-score” value is reported as -0.0467. GAGGCCCA was tested, and the “PBM E-score” value was -0.00607. For AGCCCCTA, the “PBM E-score” value was -0.194. GTAGGAGA was tested, and the “PBM E-score” value was -0.269. With AAAGACAG the “PBM E-score” value was 0.116. With CCCAGTAG the “PBM E-score” value was -0.0811. For GGCATAAA, the “PBM E-score” value was 0.26. For ACAGTGAA, the “PBM E-score” value was 0.0715. For GACCTGAC, the “PBM E-score” value was -0.00638. AGAGGGCG was tested, and the “PBM E-score” value was -0.0365. CTCGAGAG was tested, and the “PBM E-score” value was -0.113. GGATAACC was tested, and the “PBM E-score” value was -0.166. With AAGTTATC the “PBM E-score” value was 0.0496. In the case of CCTACTCA, the “PBM E-score” value is reported as 0.0472. CGTTTCCC was tested, and the “PBM E-score” value was 0.165. For AATGTACC, the “PBM E-score” value was -0.164. TGAACTAA was tested, and the “PBM E-score” value was 0.112. In the case of CCCATCTC, the “PBM E-score” value is reported as 0.0265. In the case of CTCCGTAA, the “PBM E-score” value is reported as -0.156. In the case of CGCGACAG, the “PBM E-score” value is reported as 0.0317. In the case of CGCACAGA, the “PBM E-score” value is reported as -0.0403. AAGCGGAG was tested, and the “PBM E-score” value was -0.202. AGAAACGA was tested, and the “PBM E-score” value was 0.207. ATGCCCCG was tested, and the “PBM E-score” value was -0.102. With ACATCCCC the “PBM E-score” value was 0.321. ACACGTTG was tested, and the “PBM E-score” value was -0.3. TACCGCAA was tested, and the “PBM E-score” value was -0.0223. With CCTCTGAG the “PBM E-score” value was 0.0102. With CCCCCAAA the “PBM E-score” value was -0.113. In the case of CATCCTGA, the “PBM E-score” value is reported as 0.0395. CCATGGTA was tested, and the “PBM E-score” value was 0.033. In the case of ACGGTGAG, the “PBM E-score” value is reported as -0.0735. In the case of GAGATCGC, the “PBM E-score” value is reported as -0.106. With AAATCCTG the “PBM E-score” value was 0.00572. With CACCGTAC the “PBM E-score” value was 0.00821. GGATTTTA was tested, and the “PBM E-score” value was 0.0949. In the case of CTACGTAG, the “PBM E-score” value is reported as -0.291. In the case of AAGCGTCT, the “PBM E-score” value is reported as -0.0972. For CATGCTTA, the “PBM E-score” value was -0.114. TCTAATCA was tested, and the “PBM E-score” value was 0.0397. In the case of ATGTAAGC, the “PBM E-score” value is reported as 0.0956. AGGCCTTA was tested, and the “PBM E-score” value was -0.202. For TATTATCA, the “PBM E-score” value was 0.188. In the case of CAATGACG, the “PBM E-score” value is reported as -0.19. With GTAATCGA the “PBM E-score” value was -0.112. In the case of AGTGGCTA, the “PBM E-score” value is reported as -0.1. In the case of ACGAACAC, the “PBM E-score” value is reported as 0.063. For TGGAAACA, the “PBM E-score” value was 0.153. GAGATTCA was tested, and the “PBM E-score” value was -0.0351. CCTAAAGA was tested, and the “PBM E-score” value was -0.0117. For CTCGTTTA, the “PBM E-score” value was 0.0722. In the case of CGTTTCCA, the “PBM E-score” value is reported as 0.301. For CCCTTGAC, the “PBM E-score” value was -0.112. For CAACTATG, the “PBM E-score” value was 0.0343. In the case of CAGGACTA, the “PBM E-score” value is reported as -0.139. For CGATTTCA, the “PBM E-score” value was 0.00338. For CGGCGTCA, the “PBM E-score” value was 0.0737. In the case of CTTTTTAA, the “PBM E-score” value is reported as 0.104. With CTCTGCAG the “PBM E-score” value was -0.164. AAGATCTT was tested, and the “PBM E-score” value was -0.0528. AATAGACC was tested, and the “PBM E-score” value was -0.171. For GATGTCAC, the “PBM E-score” value was 0.0506. For ACCGTAAT, the “PBM E-score” value was -0.0922. ATGAGAAC was tested, and the “PBM E-score” value was 0.118. ATCATGAC was tested, and the “PBM E-score” value was 0.131. In the case of ACAAGCGG, the “PBM E-score” value is reported as 0.106. For ACTATCAA, the “PBM E-score” value was 0.2. CCAGCCGA was tested, and the “PBM E-score” value was -0.0203. With CGGAACTC the “PBM E-score” value was -0.0357. AATGTCGC was tested, and the “PBM E-score” value was 0.104. In the case of GGGTCGAC, the “PBM E-score” value is reported as -0.16. In the case of CTCCGGCA, the “PBM E-score” value is reported as 0.171. GACCCAAC was tested, and the “PBM E-score” value was 0.0185. For CCAAGGCA, the “PBM E-score” value was -0.0268. ACCGTGTC was tested, and the “PBM E-score” value was -0.123. For ACACTTCC, the “PBM E-score” value was -0.0741. With AAGCTTTA the “PBM E-score” value was 0.0977. In the case of CAGCGTAC, the “PBM E-score” value is reported as -0.158. In the case of CTCCTTTC, the “PBM E-score” value is reported as 0.175. CGGGGTAC was tested, and the “PBM E-score” value was 0.00433. CAGGTCGC was tested, and the “PBM E-score” value was -0.142. For ACTGTAGA, the “PBM E-score” value was -0.0111. In the case of ATGGGTTC, the “PBM E-score” value is reported as -0.094. For AGGGTATA, the “PBM E-score” value was 0.089. With TCAAATAA the “PBM E-score” value was 0.104. With ATTTCTCA the “PBM E-score” value was 0.0701. For CGTATAAA, the “PBM E-score” value was 0.263. ATGTGATC was tested, and the “PBM E-score” value was 0.0378. In the case of GCCTATCA, the “PBM E-score” value is reported as -0.207. For ATATAGGA, the “PBM E-score” value was -0.043. With CCATCACC the “PBM E-score” value was -0.0108. In the case of GGTCGCAA, the “PBM E-score” value is reported as 0.149. With GCGGGGGA the “PBM E-score” value was -0.143. ATCACTTG was tested, and the “PBM E-score” value was 0.0286. AACAGAAG was tested, and the “PBM E-score” value was -0.0718. In the case of GCGGGGCA, the “PBM E-score” value is reported as -0.101. In the case of CAGCTTTC, the “PBM E-score” value is reported as 0.029. With CCGTGTAA the “PBM E-score” value was -0.046. For CTACTCAA, the “PBM E-score” value was 0.0762. With AAGGCACC the “PBM E-score” value was 0.0536. In the case of ACTCAGTA, the “PBM E-score” value is reported as -0.0231. With GACTCAGC the “PBM E-score” value was -0.116. CCACAAGC was tested, and the “PBM E-score” value was -0.0374. For CAACGCCG, the “PBM E-score” value was -0.116. ACGTGTCA was tested, and the “PBM E-score” value was 0.0322. In the case of ACAGTTCT, the “PBM E-score” value is reported as 0.0335. For CGAGCAAG, the “PBM E-score” value was -0.0663. In the case of TCTGCGAA, the “PBM E-score” value is reported as -0.166. With GCGGTGAC the “PBM E-score” value was -0.095. With TAAGGCCA the “PBM E-score” value was -0.248. In the case of CTACGCGC, the “PBM E-score” value is reported as 0.0872. With GCGATTGA the “PBM E-score” value was -0.0222. In the case of AACTCCCT, the “PBM E-score” value is reported as -0.0624. For CATTTATC, the “PBM E-score” value was 0.0356. In the case of ACAAAACC, the “PBM E-score” value is reported as 0.171. In the case of GACAGATC, the “PBM E-score” value is reported as -0.103. ACTCAATG was tested, and the “PBM E-score” value was -0.00127. For ACGATTCT, the “PBM E-score” value was -0.00452. In the case of GTTTTATA, the “PBM E-score” value is reported as 0.399. In the case of ACCTCGGG, the “PBM E-score” value is reported as -0.0521. GAGGGTAA was tested, and the “PBM E-score” value was 0.0637. For ACTCCGAG, the “PBM E-score” value was 0.0847. For CGCCGTAC, the “PBM E-score” value was -0.0758. In the case of GCATCTAC, the “PBM E-score” value is reported as 0.0977.

— the supplement of paper PMC3334620
